Patent US10947289B2, “Glyco-modified atrial natriuretic peptide” (priority 2013, dated 2021)
At least one peptide structure holds a part that was inferred or is arguable (an end, a ring closure or a residue). At least one structure is not confirmed: it was looked up by name or label, or the drawing left a doubt.

Key:
human GC-A = target: T1, human GC-A (Homo sapiens, UniProt P16066); experiment: cGMP elevating activity in CHO/human GC-A cells (Test Example 1); assay type: cell-based; details: maximum T/C in range 0.01-100 nM; solvent only = 0, 1 nM ANP = 1
T1 construct: expressed in transfected cells; host or cells: CHO cells
T1 sequence (P16066 33-1061): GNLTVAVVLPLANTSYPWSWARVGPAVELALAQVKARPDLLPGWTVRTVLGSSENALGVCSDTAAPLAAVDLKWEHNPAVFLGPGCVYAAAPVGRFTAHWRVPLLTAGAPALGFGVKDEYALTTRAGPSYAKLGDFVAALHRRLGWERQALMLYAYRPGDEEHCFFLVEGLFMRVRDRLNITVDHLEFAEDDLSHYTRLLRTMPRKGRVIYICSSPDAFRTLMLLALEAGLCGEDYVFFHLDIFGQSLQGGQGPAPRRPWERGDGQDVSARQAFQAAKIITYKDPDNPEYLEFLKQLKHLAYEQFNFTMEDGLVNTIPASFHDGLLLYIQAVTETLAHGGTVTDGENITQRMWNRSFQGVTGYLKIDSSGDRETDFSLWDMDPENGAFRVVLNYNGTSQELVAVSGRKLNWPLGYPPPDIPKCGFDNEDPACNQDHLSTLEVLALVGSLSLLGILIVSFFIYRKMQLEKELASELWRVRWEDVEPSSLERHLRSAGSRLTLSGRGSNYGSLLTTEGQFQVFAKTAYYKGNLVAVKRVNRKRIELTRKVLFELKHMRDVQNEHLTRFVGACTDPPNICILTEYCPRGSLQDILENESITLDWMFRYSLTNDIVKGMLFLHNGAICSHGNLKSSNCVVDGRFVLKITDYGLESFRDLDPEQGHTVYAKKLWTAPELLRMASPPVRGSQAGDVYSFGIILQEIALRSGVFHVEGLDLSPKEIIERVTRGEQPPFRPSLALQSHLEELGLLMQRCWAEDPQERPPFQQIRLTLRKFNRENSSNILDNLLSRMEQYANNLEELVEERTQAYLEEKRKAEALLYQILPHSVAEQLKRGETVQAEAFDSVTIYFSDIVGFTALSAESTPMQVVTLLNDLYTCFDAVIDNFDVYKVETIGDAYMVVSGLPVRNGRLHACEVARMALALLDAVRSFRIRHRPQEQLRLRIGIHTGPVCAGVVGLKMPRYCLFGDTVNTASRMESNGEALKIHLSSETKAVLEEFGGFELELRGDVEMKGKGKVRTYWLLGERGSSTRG
Description: The cGMP elevating activity of each modified peptide prepared in Example 2 was measured by the following method:
CHO/human GC-A cells, which are CHO cells constitutively expressing human GC-A, were suspended at 2×10^5 cells/ml in α-MEM, 10% FBS, and 1% penicillin-streptomycin, inoculated at 20 μl/well (4×10^3 cells/well) onto a 384-well plate (Corning, 3826), and cultured overnight in a CO2 incubator. On the next day, the medium was removed from this plate, and then, 1.6 mM IBMX/KRB buffer was added thereto at 10 μl/well. The mixture was stirred on a plate shaker and then incubated at room temperature for 10 minutes. […] The mixture was stirred on a plate shaker and then incubated for 15 minutes in a CO2 incubator. Thereafter, a lysis buffer (50 mM phosphate buffer, pH 7.0, and 1% Triton X-100) was added thereto at 5 μl/well. The cells were lysed by stirring for 10 minutes on a plate shaker. Subsequently, the cGMP levels in the cell lysates were measured by use of a cGMP kit (manufactured by Cisbio Bioassays). Specifically, to a 384-well plate (Greiner, 784076), 5 μl/well of a diluent attached to the kit, 5 μl/well of the cell lysate, 5 μl/well of cGMP-d2, and 5 μl/well of anti cGMP-Cryptate were added. The mixture was stirred on a plate shaker and then incubated overnight at 4° C. in the dark, followed by the measurement of homogeneous time-resolved fluorescence using RubyStar (manufactured by BMG LABTECH JAPAN Ltd.). The activity value (T/C) of the test substance at each concentration was calculated when the activity value of a well supplemented with only a solvent was defined as 0 and the activity value of a well supplemented with 1 nM ANP was defined as 1.

[1] = tested on: cGMP concentration in plasma; experiment: cGMP concentration in plasma of rats after intravenous injection (Test Example 3); assay type: in vivo; details: rat, 100 nmol/kg i.v.; for All values integrated AUC 0-240 / All values integrated AUC 60-240 / Pre-value and higher values integrated AUC 60-240: plasma cGMP; for All values integrated AUC 0-240: 0 to 240 minutes; for All values integrated AUC 0-240 / All values integrated AUC 60-240: Pre-value as baseline, points under baseline negative; for All values integrated AUC 60-240 / Pre-value and higher values integrated AUC 60-240: 60 to 240 minutes; for Pre-value and higher values integrated AUC 60-240: only points above baseline
Description: The duration time (the effect of persistently elevating cGMP in blood and the time for which a test substance was detectable in blood) of each modified peptide prepared in Example 2 in the blood of rats was examined by the following method:
Before the administration and 15, 30, 60, 90, 120, 180, and 240 minutes after the administration, blood was sampled (200 μL/sampling) over time from the jugular vein. The blood samples were immediately left on ice.
The collected blood samples were centrifuged at 5000 rpm at 4° C. for 5 minutes by use of a centrifuge (Sigma 4K15, rotor: Nr12130-H). The separated plasma samples were divided into two types (samples for PK measurement and for cGMP measurement) and stored at −80° C. until measurement.
The cGMP concentration in plasma was measured using Amersham cGMP Enzyme Immunoassay Biotrak™ (EIA) System (dual range) according to the protocol attached thereto.

CC[C@H](C)[C@@H]1NC(=O)[C@H](CCCNC(=N)N)NC(=O)[C@H](CC(=O)O)NC(=O)[C@H](CCSC)NC(=O)[C@H](CCCNC(=N)N)NC(=O)CNC(=O)CNC(=O)[C@H](Cc2ccccc2)NC(=O)[C@@H](NC(=O)[C@H](CO)NC(=O)[C@H](CO)NC(=O)[C@H](CCCNC(=N)N)NC(=O)[C@H](CCCNC(=N)N)NC(=O)[C@H](CC(C)C)NC(=O)[C@H](CO)NC(=O)CCc2cn(CCO[C@@H]3O[C@H](CO)[C@@H](O[C@@H]4O[C@H](CO)[C@@H](O[C@@H]5O[C@H](CO[C@H]6O[C@H](CO)[C@@H](O)[C@H](O)[C@@H]6O[C@@H]6O[C@H](CO)[C@@H](O[C@@H]7O[C@H](CO[C@]8(C(=O)O)C[C@H](O)[C@@H](NC(C)=O)[C@H]([C@H](O)[C@H](O)CO)O8)[C@H](O)[C@H](O)[C@H]7O)[C@H](O)[C@H]6NC(C)=O)[C@@H](O)[C@H](O[C@H]6O[C@H](CO)[C@@H](O)[C@H](O)[C@@H]6O[C@@H]6O[C@H](CO)[C@@H](O[C@@H]7O[C@H](CO[C@]8(C(=O)O)C[C@H](O)[C@@H](NC(C)=O)[C@H]([C@H](O)[C@H](O)CO)O8)[C@H](O)[C@H](O)[C@H]7O)[C@H](O)[C@H]6NC(C)=O)[C@@H]5O)[C@H](O)[C@H]4NC(C)=O)[C@H](O)[C@H]3NC(C)=O)nn2)CSSC[C@@H](C(=O)N[C@@H](CC(N)=O)C(=O)N[C@@H](CO)C(=O)N[C@@H](Cc2ccccc2)C(=O)N[C@@H](CCCNC(=N)N)C(=O)N[C@@H](Cc2ccc(O)cc2)C(=O)O)NC(=O)CNC(=O)[C@H](CC(C)C)NC(=O)CNC(=O)[C@H](CO)NC(=O)[C@H](CCC(N)=O)NC(=O)[C@H](C)NC(=O)CNC1=O [Compound 2-12, SG-triazole-hANP(1-28)]
Emax (human GC-A): 1.01
All values integrated AUC 0-240 [1]: 581.28 (pmol/ml)*h
All values integrated AUC 60-240 [1]: 193.48 (pmol/ml)*h
Pre-value and higher values integrated AUC 60-240 [1]: 198.16 (pmol/ml)*h
Time after administration at which plasma cGMP maintained a value higher than before administration [1]: 120 min

CC[C@H](C)[C@@H]1NC(=O)[C@H](CCCNC(=N)N)NC(=O)[C@H](CC(=O)O)NC(=O)[C@H](CCSC)NC(=O)[C@H](CCCNC(=N)N)NC(=O)CNC(=O)CNC(=O)[C@H](Cc2ccccc2)NC(=O)[C@@H](NC(=O)[C@H](CO)NC(=O)[C@H](CO)NC(=O)[C@H](CCCNC(=N)N)NC(=O)[C@H](CCCNC(=N)N)NC(=O)[C@H](CC(C)C)NC(=O)[C@H](CO)NC(=O)CCOCCOCCOCCOCCNC(=O)[C@H](CC(=O)N[C@@H]2O[C@H](CO)[C@@H](O[C@@H]3O[C@H](CO)[C@@H](O[C@@H]4O[C@H](CO[C@H]5O[C@H](CO)[C@@H](O)[C@H](O)[C@@H]5O[C@@H]5O[C@H](CO)[C@@H](O[C@@H]6O[C@H](CO[C@]7(C(=O)O)C[C@H](O)[C@@H](NC(C)=O)[C@H]([C@H](O)[C@H](O)CO)O7)[C@H](O)[C@H](O)[C@H]6O)[C@H](O)[C@H]5NC(C)=O)[C@@H](O)[C@H](O[C@H]5O[C@H](CO)[C@@H](O)[C@H](O)[C@@H]5O[C@@H]5O[C@H](CO)[C@@H](O[C@@H]6O[C@H](CO[C@]7(C(=O)O)C[C@H](O)[C@@H](NC(C)=O)[C@H]([C@H](O)[C@H](O)CO)O7)[C@H](O)[C@H](O)[C@H]6O)[C@H](O)[C@H]5NC(C)=O)[C@@H]4O)[C@H](O)[C@H]3NC(C)=O)[C@H](O)[C@H]2NC(C)=O)NC(=O)CO[C@@H]2O[C@H](CO)[C@@H](O[C@@H]3O[C@H](CO)[C@@H](O[C@@H]4O[C@H](CO[C@H]5O[C@H](CO)[C@@H](O)[C@H](O)[C@@H]5O[C@@H]5O[C@H](CO)[C@@H](O[C@@H]6O[C@H](CO[C@]7(C(=O)O)C[C@H](O)[C@@H](NC(C)=O)[C@H]([C@H](O)[C@H](O)CO)O7)[C@H](O)[C@H](O)[C@H]6O)[C@H](O)[C@H]5NC(C)=O)[C@@H](O)[C@H](O[C@H]5O[C@H](CO)[C@@H](O)[C@H](O)[C@@H]5O[C@@H]5O[C@H](CO)[C@@H](O[C@@H]6O[C@H](CO[C@]7(C(=O)O)C[C@H](O)[C@@H](NC(C)=O)[C@H]([C@H](O)[C@H](O)CO)O7)[C@H](O)[C@H](O)[C@H]6O)[C@H](O)[C@H]5NC(C)=O)[C@@H]4O)[C@H](O)[C@H]3NC(C)=O)[C@H](O)[C@H]2NC(C)=O)CSSC[C@@H](C(=O)N[C@@H](CC(N)=O)C(=O)N[C@@H](CO)C(=O)N[C@@H](Cc2ccccc2)C(=O)N[C@@H](CCCNC(=N)N)C(=O)N[C@@H](Cc2ccc(O)cc2)C(=O)O)NC(=O)CNC(=O)[C@H](CC(C)C)NC(=O)CNC(=O)[C@H](CO)NC(=O)[C@H](CCC(N)=O)NC(=O)[C@H](C)NC(=O)CNC1=O [Compound 2-13, SG-(SG-)Asn-PEG(3)-hANP(1-28)]
Emax (human GC-A): 1.01
All values integrated AUC 0-240 [1]: 268.64 (pmol/ml)*h
All values integrated AUC 60-240 [1]: 72.88 (pmol/ml)*h
Pre-value and higher values integrated AUC 60-240 [1]: 75.73 (pmol/ml)*h
Time after administration at which plasma cGMP maintained a value higher than before administration [1]: 120 min
